Data on 30 molecules can be found in PubChem BioAssay AID1745853 (National Center for Advancing Translational Sciences (NCATS), 2022).

Assay in all cases: Primary Screen for Target Class Profiling of Small Molecule Inhibitors of Methyltransferases
For assay [1], the target named is Glycine N-methyltransferase (Homo sapiens) (UniProt Q14749). The following applies: purified enzyme, MTase-Glo SAH luminescence; measured here: GNMT inhibition; at 40 µM; stronger effect = lower value. The gist of the method: (§1)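 Each enzyme was reacted with SAM and its substrate, with compounds tested once at 40 uM; SAH formed was read by MTase-Glo luminescence.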
For assay [2], the target named is Guanidinoacetate N-methyltransferase (Homo sapiens) (UniProt Q14353). The note with it: purified enzyme, MTase-Glo SAH luminescence; measured here: GAMT inhibition; at 40 µM; stronger effect = lower value. The gist of the method:
as §1

Assay [3] addresses Histamine N-methyltransferase (Homo sapiens) (UniProt P50135). The following applies: purified enzyme, MTase-Glo SAH luminescence; measured here: HNMT inhibition; at 40 µM; stronger effect = lower value. The gist of the method: as §1
Assay [4] addresses Nicotinamide N-methyltransferase (Homo sapiens) (UniProt P40261). The following applies: purified enzyme, MTase-Glo SAH luminescence; measured here: NNMT inhibition; at 40 µM; stronger effect = lower value. In a few lines:
as §1

The target of assay [5] is Phenylethanolamine N-methyltransferase (Homo sapiens) (UniProt P11086). The note with it: purified enzyme, MTase-Glo SAH luminescence; measured here: PNMT inhibition; at 40 µM; stronger effect = lower value. In a few lines:
as §1

Molecules are shown by their SMILES. Some of the results follow. The main result of the screen is listed elsewhere. These columns were measured beside it and carry no call.
% is scaled to controls: 0 for no effect and ±100 for the full control effect.

With `CN(Cc1ccccc1)Cc1cn([C@H]2CO[C@H]3[C@@H]2OC[C@@H]3NC(=O)CCC(=O)O)nn1`, the activity change, negative = inhibition is -29.8% in assay [1]; -22.3% in assay [2]; -0.043% in assay [3]; -5.01% in assay [4]; -27.8% in assay [5].

For `CCOc1ccccc1Nc1nc2c(S(=O)(=O)c3ccccc3)nnn2c2ccccc12`, the activity change, negative = inhibition in assay [1] was -2.15%; in assay [2], 2.99%; in assay [3], 4.25%; in assay [4], 7.12%; in assay [5], -1.24%.

For the molecule `CN/C(=C\[N+](=O)[O-])NCCSCc1ccc(CN(C)C)o1`, the activity change, negative = inhibition in assay [1] was -14.3%; in assay [2], 9.07%; in assay [3] it was 0.207%; in assay [4] it was -7.92%; in assay [5], 1.36%.

Consider `Cc1ccc(CNC(=O)C2(C)Cn3c(nc4ccccc43)C(=O)N2Cc2ccc(C)cc2)cc1` (stereo not given), for which the activity change, negative = inhibition in assay [1] is 1.76%; in assay [2], 0%; in assay [3], -0.105%; in assay [4] it was 2.56%; in assay [5], -0.132%.

Consider `C=C(C)C1CCC2(C(=O)O)CCC3(C)C(CCC4C5(C)C(C=O)C(O)C(C)(C)C5CCC43C)C12` (stereo not given), for which the activity change, negative = inhibition in assay [1] was -5.62%; in assay [2] it was -0.062%; in assay [3], -0.244%; in assay [4], -17.6%; in assay [5] it was -1.59%.

With `Cc1ccc(Cn2nc3n(C)c(=O)c4ccc(C(=O)NCC(C)C)cc4n3c2=O)cc1`, the activity change, negative = inhibition in assay [1] is -2.79%; in assay [2], 1.71%; in assay [3], 5.28%; in assay [4], -2.37%; in assay [5], 2.77%.

Regarding `CN(CCCN1C(=O)c2cc3occc3n2CC1(C)C(=O)NC1CCCCCCC1)C1CCCCC1` (stereo not given), the activity change, negative = inhibition in assay [1] was -0.726%; in assay [2], 1.76%; in assay [3] it was -10.9%; in assay [4] it was -7.39%; in assay [5], -5.39%.

Consider `Cc1ccc(N2CCN(C(=O)CCc3c(C)nc4c(c3C)c(=O)n(C)c(=O)n4C)CC2)c(C)c1`, for which the activity change, negative = inhibition in assay [2] is -9.09%; in assay [4], -10.3%; in assay [5] it was 1.64%.

Consider `Cc1cc(Cl)cc(Cl)c1CNCC1(O)CCCNC1` (stereo not given), for which the activity change, negative = inhibition in assay [1] is -2.46%; in assay [2], -6.23%; in assay [3] it was -16.5%; in assay [4], -3.89%; in assay [5], -5.27%.

As for `CC(C)Oc1ccc(CN2C(=O)c3nc4ccccc4n3CC2(C)C(=O)NC2CCCC2)cc1` (stereo not given), the activity change, negative = inhibition was -0.981% in assay [1]; -0.51% in assay [2]; 4.18% in assay [3]; -3.63% in assay [4]; -3.31% in assay [5].

For `COc1cccc(CNS(=O)(=O)c2ccc3[nH]c(=O)[nH]c3c2)c1`, the activity change, negative = inhibition in assay [1] is 13.7%; in assay [2], 0.978%; in assay [3], 15.7%; in assay [4], -3.47%; in assay [5], -0.423%.

Turning to `CCOc1cccc(CN2C[C@@H](Oc3ccccc3)C[C@@H]2C(=O)NC)c1`, the activity change, negative = inhibition in assay [1] is -3.1%; in assay [2], -2.61%; in assay [3] it was -2.09%; in assay [4] it was -5.8%; in assay [5], -7.49%.

Consider `Cn1c(=O)[nH]c2ncn(C)c2c1=O`, for which the activity change, negative = inhibition in assay [1] is -2.38%; in assay [2], 4.65%; in assay [3], -1.58%; in assay [4], -0.962%; in assay [5] it was 5.6%.

`Cc1c(Cl)cccc1N1C(=O)c2cc(-c3ccccc3)nn2CC1(C)C(=O)NCc1ccccc1` (stereo not given): the activity change, negative = inhibition is 3.75% in assay [1]; 0.017% in assay [2]; 0.175% in assay [3]; -0.1% in assay [4]; -0.11% in assay [5].

For the molecule `CC(C)[C@](O)(c1ccc2cc(OC(F)F)c(OC(F)F)cc2c1)c1cn[nH]n1`, the activity change, negative = inhibition in assay [1] was -10.8%; in assay [2] it was 7.62%; in assay [3], 5.04%; in assay [4] it was -6.44%; in assay [5], 6.44%.

Consider `COc1ccccc1CN[C@H]1CC(C)(C)[C@@H]2C[C@@](C)(O)CC[C@]12CCC(=O)NCCN1CCOCC1`, for which the activity change, negative = inhibition is -4.55% in assay [1]; -0.902% in assay [2]; -18.1% in assay [3]; -5.38% in assay [4]; -4.34% in assay [5].

For the molecule `CCOC(=O)Cn1cccc1-c1nc(-c2ccc(OC)cc2)c(-c2ccc(OC)cc2)s1`, the activity change, negative = inhibition in assay [1] is -5.57%; in assay [2], -31.3%; in assay [3], 0.712%; in assay [4] it was -57.6%; in assay [5], -16%.

Consider `C=C1/C(=C/C=C2\CCC[C@]3(C)[C@@H]([C@H](C)/C=C/[C@H](O)C4CC4)CC[C@@H]23)C[C@@H](O)C[C@@H]1O`, for which the activity change, negative = inhibition in assay [1] was -16.2%; in assay [3], 0.19%.

On to `O=C(CN1CCC2(CC1)NC(=O)CC2C(=O)O)NCc1ccccn1` (stereo not given), for which the activity change, negative = inhibition is -1.41% in assay [1]; -1.82% in assay [2]; -0.626% in assay [3]; -0.85% in assay [4]; 1.36% in assay [5].

With `C1COC(NC(C2CC2)C2CC2)=N1`, the activity change, negative = inhibition in assay [1] is -6.79%; in assay [2], 3.21%; in assay [3] it was 1.53%; in assay [4], -8.89%; in assay [5], 3.6%.

Take `COc1ccc(CN2CCN(CCCSc3cc(C(C)(C)C)c(O)c(C(C)(C)C)c3)CC2)c(OC)c1OC`: the activity change, negative = inhibition is 5.82% in assay [1]; 10.1% in assay [2]; 8.18% in assay [3]; -7.02% in assay [4]; -0.542% in assay [5].

Regarding `Cc1ccc([C@H]2C[C@@H](O)[C@@H](O)[C@@H]2NS(C)(=O)=O)cc1`, the activity change, negative = inhibition in assay [1] is -3.31%; in assay [2] it was -7.71%; in assay [3], -1.46%; in assay [4], -10.6%; in assay [5], -7.62%.

With `CCOc1ccccc1NC(=O)N1CCn2c(C)ccc2C1CC` (stereo not given), the activity change, negative = inhibition in assay [1] was -11.1%; in assay [2], 0%; in assay [3], -9.55%; in assay [4], -6.57%; in assay [5], -6.85%.

`O=C(NCc1cccnc1)C1CCC(=O)N1C1CCN(C(=O)Cc2ccccc2F)CC1` (stereo not given): the activity change, negative = inhibition in assay [1] is -1.04%; in assay [2], -1.85%; in assay [3] it was 1.5%; in assay [4], -8.44%; in assay [5], -2.96%.

As to `CC(C)N1CC(C(=O)N2CCC(c3ccccc3)CC2)NC1=O` (stereo not given), the activity change, negative = inhibition in assay [1] was -2.03%; in assay [2], 2.69%; in assay [3], 2.49%; in assay [4], -3.26%; in assay [5], 10.8%.

As to `O=C(NC1CCCN(c2cc(N3CCCC3)ncn2)C1)c1ccco1` (stereo not given), the activity change, negative = inhibition in assay [1] is -5.94%; in assay [2], -4.41%; in assay [3], -4.36%; in assay [4] it was -7.26%; in assay [5] it was -0.49%.

Turning to `COc1ccc(-c2cc(N3CCCN(C(=O)CCCc4ccccc4)CC3)n[nH]2)cc1`, the activity change, negative = inhibition was -9.19% in assay [1]; -5.93% in assay [2]; -4.49% in assay [3]; -18% in assay [4]; -9.39% in assay [5].

Regarding `CCOC(=O)c1cc2n(n1)CC(C)(C(=O)NCc1ccccc1)N(Cc1ccccc1Br)C2=O` (stereo not given), the activity change, negative = inhibition in assay [1] worked out at 2.83%; in assay [2], 0%; in assay [3], 7.44%; in assay [4], 6.23%; in assay [5], 4.72%.

`CC(C)CN1C(=O)COC[C@@H]1[C@H](O)c1ccc(NC(=O)c2ccc3c(c2)OCO3)cc1`: the activity change, negative = inhibition in assay [1] is -5.23%; in assay [2], -4.36%; in assay [3], 1.32%; in assay [4], -5.98%; in assay [5] it was -13.3%.

As for `CN(Cc1cccc(C(F)(F)F)c1)C(=O)CC1CCCC1`, the activity change, negative = inhibition in assay [1] is -3.08%; in assay [2], -7.12%; in assay [3], -3.4%; in assay [4] it was -22%; in assay [5] it was -13.3%.
